Our source for the binding signal values is article PMC9911399, “Two distinct binding modes provide the RNA-binding protein RbFox with extraordinary sequence specificity”.

T1: RBFOX1 RRM RbFoxmut (Fox-RRM*) (Homo sapiens, UniProt Q9NWB1 109-208, R118D;E147R;N151S;E152T)
T1 sequence: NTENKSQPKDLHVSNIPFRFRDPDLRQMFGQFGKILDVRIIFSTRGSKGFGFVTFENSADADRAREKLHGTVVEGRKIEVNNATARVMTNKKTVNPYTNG

B1: CGGGGGU (DNA:RNA)
RNA: GGGAGACCGGAAUUCAGAUUGUCCCGGGGGUUUAAAUCCCGUCGUAGCCACCA
DNA 1: CAATCTGAATTCCGGTCTCCC
DNA 2: TGGTGGCTACGACGGGATT
B2: UUAUUGA (DNA:RNA)
RNA: B1 RNA with C25U, G26U, G27A, G28U, G29U, U31A
DNA 1: CAATCTGAATTCCGGTCTCCC
DNA 2: TGGTGGCTACGACGGGATT
B3: UUUUACU (DNA:RNA)
RNA: B1 RNA with C25U, G26U, G27U, G28U, G29A, G30C
DNA 1: CAATCTGAATTCCGGTCTCCC
DNA 2: TGGTGGCTACGACGGGATT
B4: UGCACUG (DNA:RNA)
RNA: B1 RNA with C25U, G27C, G28A, G29C, G30U, U31G
DNA 1: CAATCTGAATTCCGGTCTCCC
DNA 2: TGGTGGCTACGACGGGATT
B5: GAGUCUG (DNA:RNA)
RNA: B1 RNA with C25G, G26A, G28U, G29C, G30U, U31G
DNA 1: CAATCTGAATTCCGGTCTCCC
DNA 2: TGGTGGCTACGACGGGATT
B6: GUCGGCG (DNA:RNA)
RNA: B1 RNA with C25G, G26U, G27C, G30C, U31G
DNA 1: CAATCTGAATTCCGGTCTCCC
DNA 2: TGGTGGCTACGACGGGATT
B7: UCCAACC (DNA:RNA)
RNA: GGGAGACCGGAAUUCAGAUUGUCCUCCAACCUUAAAUCCCGUCGUAGCCACCA
DNA 1: CAATCTGAATTCCGGTCTCCC
DNA 2: TGGTGGCTACGACGGGATT
B8: GCCCAAU (DNA:RNA)
RNA: B7 RNA with U25G, A28C, C30A, C31U
DNA 1: CAATCTGAATTCCGGTCTCCC
DNA 2: TGGTGGCTACGACGGGATT
B9: CCCCAUA (DNA:RNA)
RNA: B7 RNA with U25C, A28C, C30U, C31A
DNA 1: CAATCTGAATTCCGGTCTCCC
DNA 2: TGGTGGCTACGACGGGATT
B10: CAACUCG (DNA:RNA)
RNA: B1 RNA with G26A, G27A, G28C, G29U, G30C, U31G
DNA 1: CAATCTGAATTCCGGTCTCCC
DNA 2: TGGTGGCTACGACGGGATT
B11: CCGCCAC (DNA:RNA)
RNA: B1 RNA with G26C, G28C, G29C, G30A, U31C
DNA 1: CAATCTGAATTCCGGTCTCCC
DNA 2: TGGTGGCTACGACGGGATT
B12: UAUGGUG (DNA:RNA)
RNA: B1 RNA with C25U, G26A, G27U, G30U, U31G
DNA 1: CAATCTGAATTCCGGTCTCCC
DNA 2: TGGTGGCTACGACGGGATT
B13: UGGGUAU (DNA:RNA)
RNA: B1 RNA with C25U, G29U, G30A
DNA 1: CAATCTGAATTCCGGTCTCCC
DNA 2: TGGTGGCTACGACGGGATT
B14: CUAGGGC (DNA:RNA)
RNA: B1 RNA with G26U, G27A, U31C
DNA 1: CAATCTGAATTCCGGTCTCCC
DNA 2: TGGTGGCTACGACGGGATT
B15: GCCCUUA (DNA:RNA)
RNA: B7 RNA with U25G, A28C, A29U, C30U, C31A
DNA 1: CAATCTGAATTCCGGTCTCCC
DNA 2: TGGTGGCTACGACGGGATT
B16: ACCUCCG (DNA:RNA)
RNA: B7 RNA with U25A, A28U, A29C, C31G
DNA 1: CAATCTGAATTCCGGTCTCCC
DNA 2: TGGTGGCTACGACGGGATT
B17: UUCGUGU (DNA:RNA)
RNA: B1 RNA with C25U, G26U, G27C, G29U
DNA 1: CAATCTGAATTCCGGTCTCCC
DNA 2: TGGTGGCTACGACGGGATT
B18: GCAUUAG (DNA:RNA)
RNA: B7 RNA with U25G, C27A, A28U, A29U, C30A, C31G
DNA 1: CAATCTGAATTCCGGTCTCCC
DNA 2: TGGTGGCTACGACGGGATT
B19: UUCCAGA (DNA:RNA)
RNA: B7 RNA with C26U, A28C, C30G, C31A
DNA 1: CAATCTGAATTCCGGTCTCCC
DNA 2: TGGTGGCTACGACGGGATT
B20: UACUGUC (DNA:RNA)
RNA: B7 RNA with C26A, A28U, A29G, C30U
DNA 1: CAATCTGAATTCCGGTCTCCC
DNA 2: TGGTGGCTACGACGGGATT
B21: CCGCUAG (DNA:RNA)
RNA: B1 RNA with G26C, G28C, G29U, G30A, U31G
DNA 1: CAATCTGAATTCCGGTCTCCC
DNA 2: TGGTGGCTACGACGGGATT
B22: UCGCGUC (DNA:RNA)
RNA: B7 RNA with C27G, A28C, A29G, C30U
DNA 1: CAATCTGAATTCCGGTCTCCC
DNA 2: TGGTGGCTACGACGGGATT
B23: GUCACCA (DNA:RNA)
RNA: B7 RNA with U25G, C26U, A29C, C31A
DNA 1: CAATCTGAATTCCGGTCTCCC
DNA 2: TGGTGGCTACGACGGGATT
B24: GGAAUAC (DNA:RNA)
RNA: B7 RNA with U25G, C26G, C27A, A29U, C30A
DNA 1: CAATCTGAATTCCGGTCTCCC
DNA 2: TGGTGGCTACGACGGGATT
B25: UCUUAAC (DNA:RNA)
RNA: B7 RNA with C27U, A28U, C30A
DNA 1: CAATCTGAATTCCGGTCTCCC
DNA 2: TGGTGGCTACGACGGGATT
B26: CCUAAGA (DNA:RNA)
RNA: B7 RNA with U25C, C27U, C30G, C31A
DNA 1: CAATCTGAATTCCGGTCTCCC
DNA 2: TGGTGGCTACGACGGGATT
B27: GAAUAAU (DNA:RNA)
RNA: B1 RNA with C25G, G26A, G27A, G28U, G29A, G30A
DNA 1: CAATCTGAATTCCGGTCTCCC
DNA 2: TGGTGGCTACGACGGGATT
B28: AGACUUA (DNA:RNA)
RNA: B1 RNA with C25A, G27A, G28C, G29U, G30U, U31A
DNA 1: CAATCTGAATTCCGGTCTCCC
DNA 2: TGGTGGCTACGACGGGATT
B29: GGAAUAU (DNA:RNA)
RNA: B1 RNA with C25G, G27A, G28A, G29U, G30A
DNA 1: CAATCTGAATTCCGGTCTCCC
DNA 2: TGGTGGCTACGACGGGATT
B30: AAUCGAA (DNA:RNA)
RNA: B1 RNA with C25A, G26A, G27U, G28C, G30A, U31A
DNA 1: CAATCTGAATTCCGGTCTCCC
DNA 2: TGGTGGCTACGACGGGATT
B31: AUGGACC (DNA:RNA)
RNA: B7 RNA with U25A, C26U, C27G, A28G
DNA 1: CAATCTGAATTCCGGTCTCCC
DNA 2: TGGTGGCTACGACGGGATT

Numbering of substitutions follows the chain as printed; changes in the protein carry UniProt numbers. This is one part of the list.

This assay has as its target T1, RBFOX1 RRM RbFoxmut (Fox-RRM*). The experiment in a line: EMSA; HiTS-Eq, 1 nM pool, 10 min; buffer printed only for the single-RNA assays: 10 mM Tris pH 7.5, 150 mM NaCl, 3.4 mM EDTA, 0.001% NP-40, 30 C. To be noted: tags: His6 N-terminal (pET28a); label: 5' 32P. A digest of the protocol:
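A pool of RNA with 7 randomized nucleotides, 5′-radiolabelled and with DNA-annealed flanks, was equilibrated at 1 nM for 10 min in 50 µL with purified RbFox RRM, wild type or mutant, across increasing protein concentrations. Free RNA was separated by 8% native PAGE, excised, reverse-transcribed, barcoded by PCR and sequenced. Relative association constants were obtained from read-count changes of each RNA species versus the control reaction and normalised to the cognate motif.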
On the technique in general: A gel shift assay detects complexes by their altered migration in electrophoresis.
Consider B1, for which the binding signal is 0.13 KA relative to UGCAUGU.

In the case of B2, the binding signal was 0.0853 KA relative to UGCAUGU.

Consider B3, for which the binding signal was 0.0999 KA relative to UGCAUGU.

B4: the binding signal was 0.104 KA relative to UGCAUGU.

Turning to B5, the binding signal was 0.159 KA relative to UGCAUGU.

As for B6, the binding signal is 0.144 KA relative to UGCAUGU.

Turning to B7, the binding signal is 0.0389 KA relative to UGCAUGU.

On to B8, for which the binding signal is 0.0622 KA relative to UGCAUGU.

For the molecule B9, the binding signal was 0.123 KA relative to UGCAUGU.

Consider B10, for which the binding signal was 0.142 KA relative to UGCAUGU.

Turning to B11, the binding signal is 0.0628 KA relative to UGCAUGU.

In the case of B12, the binding signal was 0.131 KA relative to UGCAUGU.

In the case of B13, the binding signal was 0.172 KA relative to UGCAUGU.

For B14, the binding signal was 0.0765 KA relative to UGCAUGU.

Regarding B15, the binding signal is 0.0811 KA relative to UGCAUGU.

In the case of B16, the binding signal was 0.0628 KA relative to UGCAUGU.

Take B17: the binding signal was 0.13 KA relative to UGCAUGU.

As to B18, the binding signal was 0.153 KA relative to UGCAUGU.

Consider B19, for which the binding signal is 0.0838 KA relative to UGCAUGU.

B20: the binding signal was 0.167 KA relative to UGCAUGU.

B21: the binding signal was 0.0977 KA relative to UGCAUGU.

Regarding B22, the binding signal is 0.145 KA relative to UGCAUGU.

Turning to B23, the binding signal is 0.0826 KA relative to UGCAUGU.

With B24, the binding signal is 0.0833 KA relative to UGCAUGU.

For B25, the binding signal is 0.102 KA relative to UGCAUGU.

On to B26, for which the binding signal was 0.104 KA relative to UGCAUGU.

For the molecule B27, the binding signal was 0.137 KA relative to UGCAUGU.

B28: the binding signal was 0.0919 KA relative to UGCAUGU.

Regarding B29, the binding signal was 0.102 KA relative to UGCAUGU.

As to B30, the binding signal was 0.081 KA relative to UGCAUGU.

Consider B31, for which the binding signal was 0.0807 KA relative to UGCAUGU.
